Measurements from the supplement of paper PMC7826260.
This is one part of the list. Each Rep nickase domain was tested in vitro on the same pool of single strands (1 h at 37 °C, 3 µM enzyme); the outer parts of the 90-letter strands are left off. Values are log2 of uncut reads against the no-enzyme pool; the lower, the more was cut; hits are not called. The scaling is to total reads; where an enzyme cuts many sequences, the uncut ones exceed 0.

Key:
Experiment in all cases: uncleaved DNA left, log2 of reads against the no-enzyme library (log2 ratio); higher = less cleavage (more negative = more Rep cleavage of the k-mer); sequences stand for … in CTCGTCCG…ACCGGAGA
[1] = test system: T1, Rep nickase domain of Muscovy duck circovirus
T1 sequence (residues 1-111 of Rep, tag left off): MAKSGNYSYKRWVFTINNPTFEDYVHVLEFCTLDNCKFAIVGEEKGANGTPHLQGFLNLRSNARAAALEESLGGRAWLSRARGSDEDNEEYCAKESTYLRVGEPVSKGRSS
Description: (§1)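 A pool of 90-nt single-stranded DNAs with seven random bases just before the constant AC of the nick site (name = the seven bases) was cut by 3 µM recombinant His6-SUMO-tagged Rep nickase domain (300 nM DNA, 50 mM HEPES pH 8.0, 50 mM NaCl, 1 mM MnCl2, 1 h, 37 °C, three replicates). Uncut DNA was amplified and sequenced.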

[2] = test system: T2, Rep nickase domain of banana bunchy top virus
T2 sequence (residues 1-94 of Rep, tag left off): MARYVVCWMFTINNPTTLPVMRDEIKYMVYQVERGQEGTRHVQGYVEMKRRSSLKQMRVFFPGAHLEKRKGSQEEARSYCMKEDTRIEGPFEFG
Description: as §1

[3] = test system: T3, Rep nickase domain of cabbage leaf curl virus
T3 sequence (residues 1-116 of Rep, tag left off): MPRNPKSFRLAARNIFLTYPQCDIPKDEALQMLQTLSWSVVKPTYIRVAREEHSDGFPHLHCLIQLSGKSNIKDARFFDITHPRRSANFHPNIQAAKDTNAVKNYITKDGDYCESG
Description: as §1

[4] = test system: T4, Rep nickase domain of chickpea chlorotic dwarf virus
T4 sequence (residues 1-124 of Rep, tag left off): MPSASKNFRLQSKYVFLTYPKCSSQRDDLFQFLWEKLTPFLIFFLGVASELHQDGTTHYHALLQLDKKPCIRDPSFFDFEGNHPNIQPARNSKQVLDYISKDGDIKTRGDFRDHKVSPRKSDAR
Description: as §1

[5] = test system: T5, Rep nickase domain of faba bean necrotic yellows virus
T5 sequence (residues 1-98 of Rep, tag left off): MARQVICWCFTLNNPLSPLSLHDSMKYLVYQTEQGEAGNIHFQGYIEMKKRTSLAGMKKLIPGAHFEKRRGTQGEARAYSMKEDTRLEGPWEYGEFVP
Description: as §1

[6] = test system: T6, Rep nickase domain of maize striate mosaic virus
T6 sequence (residues 1-117 of Rep, tag left off): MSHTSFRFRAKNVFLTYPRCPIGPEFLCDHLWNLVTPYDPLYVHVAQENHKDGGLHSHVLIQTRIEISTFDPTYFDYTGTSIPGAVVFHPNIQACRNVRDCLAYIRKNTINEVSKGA
Description: as §1

[7] = test system: T7, Rep nickase domain of porcine circovirus 2
T7 sequence (residues 2-116 of Rep, tag left off): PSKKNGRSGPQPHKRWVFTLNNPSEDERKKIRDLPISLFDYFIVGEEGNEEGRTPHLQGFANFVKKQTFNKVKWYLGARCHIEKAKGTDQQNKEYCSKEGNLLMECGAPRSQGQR
Description: as §1

[8] = test system: T8, Rep nickase domain of tomato golden mosaic virus
T8 sequence (residues 1-124 of Rep, tag left off): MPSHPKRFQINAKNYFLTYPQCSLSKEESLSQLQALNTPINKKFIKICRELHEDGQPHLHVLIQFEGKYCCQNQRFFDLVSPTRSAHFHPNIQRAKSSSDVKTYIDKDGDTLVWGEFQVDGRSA
Description: as §1

[9] = test system: T9, Rep nickase domain of tomato yellow leaf curl virus
T9 sequence (residues 1-136 of Rep, tag left off): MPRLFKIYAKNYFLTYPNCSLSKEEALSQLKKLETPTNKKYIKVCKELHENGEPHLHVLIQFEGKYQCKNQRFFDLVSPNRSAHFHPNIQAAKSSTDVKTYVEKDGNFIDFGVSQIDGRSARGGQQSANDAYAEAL
Description: as §1

[10] = test system: T10, Rep nickase domain of wheat dwarf virus
T10 sequence (residues 1-137 of Rep, tag left off): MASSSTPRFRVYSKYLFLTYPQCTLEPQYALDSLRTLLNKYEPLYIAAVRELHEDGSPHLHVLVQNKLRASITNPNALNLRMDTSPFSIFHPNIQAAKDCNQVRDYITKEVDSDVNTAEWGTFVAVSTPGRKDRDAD
Description: as §1

| Sequence | uncleaved DNA left (log2) [1] | uncleaved DNA left (log2) [2] | uncleaved DNA left (log2) [3] | uncleaved DNA left (log2) [4] | uncleaved DNA left (log2) [5] | uncleaved DNA left (log2) [6] | uncleaved DNA left (log2) [7] | uncleaved DNA left (log2) [8] | uncleaved DNA left (log2) [9] | uncleaved DNA left (log2) [10] |
| --- | --- | --- | --- | --- | --- | --- | --- | --- | --- | --- |
| GTCCCCC | -0.0446 | 0.109 | 0.259 | 0.752 | -0.0122 | 1.53 | -0.0932 | 0.0225 | -0.0116 | 0.109 |
| TCTGCTA | 0.0793 | 0.053 | -0.0312 | -0.935 | 0.108 | -0.792 | -0.0292 | -0.0116 | 0.0795 | 0.0445 |
| TCCACCA | -0.14 | -0.0419 | 0.108 | -1.51 | -0.0291 | -0.391 | -0.407 | 0.00884 | 0.0528 | -0.0549 |
| GTGGGAA | 0.0881 | 0.0343 | 0.571 | 1.26 | 0.0135 | 2.02 | 0.0259 | -0.0837 | 0.0845 | 0.152 |
| GGATGAA | 0.122 | 0.0663 | 0.602 | 1.39 | 0.0784 | 1.89 | 0.273 | 0.0334 | 0.0925 | 0.181 |
| TGGTGCG | 0.0755 | -0.0635 | -0.226 | 1.03 | 0.145 | 0.626 | 0.0733 | 0.0359 | -0.136 | -0.0593 |
| GTTGGCA | 0.0301 | 0.167 | 0.381 | 0.956 | 0.0807 | 1.58 | 0.127 | 0.162 | 0.119 | 0.073 |
| CTGTACA | -0.0125 | 0.0233 | -0.0214 | -1.62 | -0.00394 | -0.503 | -0.0806 | -0.0979 | 0.0777 | 0.15 |
| AATTATC | -0.134 | -0.0984 | 0.11 | -0.219 | 0.0366 | -0.603 | -1.2 | 0.0361 | 0.0984 | 0.095 |
| GGCCTTT | 0.17 | 0.101 | 0.513 | 1.11 | 0.158 | 1.81 | 0.0945 | -0.133 | 0.064 | 0.133 |
| TTTCCAA | -0.0321 | -0.0154 | 0.231 | 0.261 | -0.0988 | 0.451 | -0.144 | -0.00785 | 0.115 | 0.0851 |
| CAAAGAT | 0.0696 | 0.0159 | -0.207 | -0.801 | 0.12 | 0.947 | 0.149 | 0.0619 | 0.0313 | 0.0182 |
| TCAGTAC | -0.0859 | -0.102 | -0.0455 | -0.581 | -0.109 | -0.547 | -0.0613 | -0.111 | -0.165 | 0.00899 |
| GATCCTT | -0.0105 | 0.0865 | 0.531 | -0.378 | 0.0292 | 1.53 | -0.18 | 0.127 | 0.138 | 0.143 |
| TCTTACC | -3.18 | -0.292 | -1.3 | -2.66 | -0.971 | -0.513 | -3.04 | -0.494 | 0.0667 | -1.66 |
